# From patent US20250304706A1 (Astellas, published 2025)
# B1: BTE-0028 (bispecific antibody)
# chain 1: QVQLVESGGGVVQPGGSLRLSCAASGFTFSSYGMHWVRQAPGKGLEWVAVIWYDGRNKYYADSVKGRFTISRDNSKNTLYLQMNSLRAEDTAVYYCTRDHSGSGSYYIDYWGQGTLVTVSSASTKGPSVFPLAPSSKSTSGGTAALGCLVKDYFPEPVTVSWNSGALTSGVHTFPAVLQSSGLYSLSSVVTVPSSSLGTQTYICNVNHKPSNTKVDKKVEPKSCDKTHTCPPCPAPEAAGGPSVFLFPPKPKDTLMISRTPEVTCVVVDVSHEDPEVKFNWYVDGVEVHNAKTKPREEQYGSTYRVVSVLTVLHQDWLNGKEYKCKVSNKALPAPIEKTISKAKGQPREPQVYTLPPSRDELTKNQVSLSCAVKGFYPSDIAVEWESNGQPENNYKTTPPVLDSDGSFFLVSKLTVDKSRWQQGNVFSCSVMHEALHNHYTQKSLSLSPGK
# chain 2: EIAMTQSPATLSVSPGERATLSCRASQSVSSNLAWYQQKPGQAPRLLIYGASTRATGLPARFSGSGSGTEFTLTISSLQSEDFAVYYCQQYNNFWTFGQGTKVEIKRTVAAPSVFIFPPSDEQLKSGTASVVCLLNNFYPREAKVQWKVDNALQSGNSQESVTEQDSKDSTYSLSSTLTLSKADYEKHKVYACEVTHQGLSSPVTKSFNRGEC
# chain 3: EVQLVESGGGLIQPGGSLRLSCAASGFTFNTYAMNWVRQAPGKGLEWVARIRSKYNNYATYYADSVKDRFTISRDNSKSTLYLQMNNLRAEDTAVYYCVRHGNFGNSYVSWFAYWGQGTLVTVSSGKPGSGKPGSGKPGSGKPGSQAVVTQEPSLTVSPGGTVTLTCRSSTGAVTTSNYANWVQQKPGQAPRGLIGGTNKRAPGTPARFSGSLLGDKAALTLSGAQPEDEAEYYCALWYSNLWVFGGGTKVTVL[human IgG1 Fc with C220S L234A L235A N297G T366W (EU numbers) cut from this listing]
# B2: BTE-0029 (bispecific antibody)
# chain 1: B1 chain 1
# chain 2: B1 chain 2
# chain 3: B1 chain 3 with N76E
# B3: BTE-0003 (bispecific antibody)
# chain 1: B1 chain 1
# chain 2: B1 chain 2
# chain 3: B1 chain 3 with T31G, N76D
# B4: BTE-0031 (bispecific antibody)
# chain 1: B1 chain 1
# chain 2: B1 chain 2
# chain 3: B1 chain 3 with N76D, S107E
# B5: BTE-0032 (bispecific antibody)
# chain 1: B1 chain 1
# chain 2: B1 chain 2
# chain 3: B1 chain 3 with N76D, S107P
# B6: BTE-0033 (bispecific antibody)
# chain 1: B1 chain 1
# chain 2: B1 chain 2
# chain 3: B1 chain 3 with N76D, S107A
# B7: BTE-0035 (bispecific antibody)
# chain 1: B1 chain 1
# chain 2: B1 chain 2
# chain 3: B1 chain 3 with N76D, S107F
# B8: BTE-0036 (bispecific antibody)
# chain 1: B1 chain 1
# chain 2: B1 chain 2
# chain 3: B1 chain 3 with N76D, S107G
# B9: BTE-0037 (bispecific antibody)
# chain 1: B1 chain 1
# chain 2: B1 chain 2
# chain 3: B1 chain 3 with N76D, S107H
# B10: BTE-0038 (bispecific antibody)
# chain 1: B1 chain 1
# chain 2: B1 chain 2
# chain 3: B1 chain 3 with N76D, S107I
# B11: BTE-0039 (bispecific antibody)
# chain 1: B1 chain 1
# chain 2: B1 chain 2
# chain 3: B1 chain 3 with N76D, S107K
# B12: BTE-0004 (bispecific antibody)
# chain 1: B1 chain 1
# chain 2: B1 chain 2
# chain 3: B1 chain 3 with T31S, N76D
# B13: BTE-0040 (bispecific antibody)
# chain 1: B1 chain 1
# chain 2: B1 chain 2
# chain 3: B1 chain 3 with N76D, S107L
# B14: BTE-0041 (bispecific antibody)
# chain 1: B1 chain 1
# chain 2: B1 chain 2
# chain 3: B1 chain 3 with N76D, S107M
# B15: BTE-0042 (bispecific antibody)
# chain 1: B1 chain 1
# chain 2: B1 chain 2
# chain 3: B1 chain 3 with N76D, S107N
# B16: BTE-0043 (bispecific antibody)
# chain 1: B1 chain 1
# chain 2: B1 chain 2
# chain 3: B1 chain 3 with N76D, S107Q
# B17: BTE-0044 (bispecific antibody)
# chain 1: B1 chain 1
# chain 2: B1 chain 2
# chain 3: B1 chain 3 with N76D, S107R
# B18: BTE-0045 (bispecific antibody)
# chain 1: B1 chain 1
# chain 2: B1 chain 2
# chain 3: B1 chain 3 with N76D, S107T
# B19: BTE-0046 (bispecific antibody)
# chain 1: B1 chain 1
# chain 2: B1 chain 2
# chain 3: B1 chain 3 with N76D, S107V
# B20: BTE-0047 (bispecific antibody)
# chain 1: B1 chain 1
# chain 2: B1 chain 2
# chain 3: B1 chain 3 with N76D, S107Y
# B21: BTE-0049 (bispecific antibody)
# chain 1: B1 chain 1
# chain 2: B1 chain 2
# chain 3: B1 chain 3 with A49G, N76D
# B22: BTE-0005 (bispecific antibody)
# chain 1: B1 chain 1
# chain 2: B1 chain 2
# chain 3: B1 chain 3 with N30S, T31G, Y32S, N76D
# B23: BTE-0050 (bispecific antibody)
# chain 1: B1 chain 1
# chain 2: B1 chain 2
# chain 3: B1 chain 3 with A49S, N76D
# B24: BTE-0051 (bispecific antibody)
# chain 1: B1 chain 1
# chain 2: B1 chain 2
# chain 3: B1 chain 3 with N76D, W111Y
# B25: BTE-0052 (bispecific antibody)
# chain 1: B1 chain 1
# chain 2: B1 chain 2
# chain 3: B1 chain 3 with N76D, A236L
# B26: BTE-0055 (bispecific antibody)
# chain 1: B1 chain 1
# chain 2: B1 chain 2
# chain 3: B1 chain 3 with N76D, A236V, W238Y
# B27: BTE-0056 (bispecific antibody)
# chain 1: B1 chain 1
# chain 2: B1 chain 2
# chain 3: B1 chain 3 with N76D, W238Y
# B28: BTE-0057 (bispecific antibody)
# chain 1: B1 chain 1
# chain 2: B1 chain 2
# chain 3: B1 chain 3 with N76D, W243Y
# B29: BTE-0058 (bispecific antibody)
# chain 1: B1 chain 1
# chain 2: B1 chain 2
# chain 3: B1 chain 3 with N76D, W243F
# B30: BTE-0006 (bispecific antibody)
# chain 1: B1 chain 1
# chain 2: B1 chain 2
# chain 3: B1 chain 3 with N30S, T31D, Y32H, N76D
# B31: BTE-0064 (bispecific antibody)
# chain 1: B1 chain 1
# chain 2: B1 chain 2
# chain 3: B1 chain 3 with N76D, V183F
# B32: BTE-0067 (bispecific antibody)
# chain 1: B1 chain 1
# chain 2: B1 chain 2
# chain 3: B1 chain 3 with N76D, V183L
# B33: BTE-0007 (bispecific antibody)
# chain 1: B1 chain 1
# chain 2: B1 chain 2
# chain 3: B1 chain 3 with N30S, T31S, N76D
# B34: BTE-0008 (bispecific antibody)
# chain 1: B1 chain 1
# chain 2: B1 chain 2
# chain 3: B1 chain 3 with N35S, N76D
# B35: BTE-0009 (bispecific antibody)
# chain 1: B1 chain 1
# chain 2: B1 chain 2
# chain 3: B1 chain 3 with N35H, N76D
# Molecular target: T1, CD3εδ complex protein (human; alpaca, UniProt P07766 23-126; P04234 22-105)
# T1 construct: they are not part of the secreted protein; also called human CD3; CD386 complex protein
# Assay: ELISA, CD3 complex immobilized
# Sequence of UniProt P07766 (P07766 23-126 limits assumed, stated change not applied, form in doubt, chain 1 of 2): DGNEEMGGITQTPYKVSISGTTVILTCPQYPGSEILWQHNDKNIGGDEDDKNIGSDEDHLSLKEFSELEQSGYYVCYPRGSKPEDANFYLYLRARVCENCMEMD
# Sequence of UniProt P07766 (P04234 22-105 limits assumed, stated change not applied, form in doubt, chain 2 of 2, further chain): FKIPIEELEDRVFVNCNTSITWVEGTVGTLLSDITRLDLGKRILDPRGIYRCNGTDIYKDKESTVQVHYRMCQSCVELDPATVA
row,Binder,EC50 [µg/mL]
1,B1,0.38
2,B2,0.0802
3,B3,0.00767
4,B4,0.0174
5,B5,0.255
6,B6,0.0104
7,B7,0.0875
8,B8,0.00431
9,B9,0.031
10,B10,0.438
11,B11,0.00835
12,B12,0.00537
13,B13,0.0389
14,B14,0.0407
15,B15,0.0575
16,B16,0.0198
17,B17,0.00844
18,B18,0.00825

row,Binder,EC50 [µg/mL]
1,B19,0.32
2,B20,0.135
3,B21,0.00498
4,B22,0.0387
5,B23,0.00999
6,B24,0.00735
7,B25,1.23
8,B26,0.0355
9,B27,0.0989
10,B28,1.01
11,B29,0.847
12,B30,0.224
13,B31,1.87
14,B32,0.00334
15,B33,0.00379
16,B34,0.431
17,B35,0.286

# Substitutions are numbered along the chain they refer to.
